According to paper PMC4007762:
Residue numbers refer to the chain shown, from its start. In names and notes the source's numbering stands. No constants are given. Whether binding was seen depends on the method and setting. Binding seen in cells or lysates may run through a third protein. Some results given as binding are weak or reduced against the parent protein; the word gives no strength. For part of these data: Sequences can lack the tags named with a protein.

Amino acid sequences for entries named in this document (tags omitted).
UniProt Q14247: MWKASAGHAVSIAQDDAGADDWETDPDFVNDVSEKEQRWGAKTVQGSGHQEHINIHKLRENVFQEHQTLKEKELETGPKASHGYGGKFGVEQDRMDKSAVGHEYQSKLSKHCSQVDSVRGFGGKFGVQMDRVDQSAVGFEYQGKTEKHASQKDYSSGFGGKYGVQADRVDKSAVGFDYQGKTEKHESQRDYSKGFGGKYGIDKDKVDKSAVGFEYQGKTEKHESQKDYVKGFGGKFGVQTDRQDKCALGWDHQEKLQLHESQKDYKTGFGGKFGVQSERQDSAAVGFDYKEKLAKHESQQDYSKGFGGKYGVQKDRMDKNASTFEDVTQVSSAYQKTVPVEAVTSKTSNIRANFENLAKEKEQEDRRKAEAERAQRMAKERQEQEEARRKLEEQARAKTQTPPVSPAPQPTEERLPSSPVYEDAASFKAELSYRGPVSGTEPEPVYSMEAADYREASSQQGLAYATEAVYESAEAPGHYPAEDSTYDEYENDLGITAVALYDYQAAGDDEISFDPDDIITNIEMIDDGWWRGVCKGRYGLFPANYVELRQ

Key:
[1] = biological target: T1, YFP–p120-1A Y335F (UniProt P30999); assay: co-IP; YFP-tagged p120 constructs transiently expressed in HCT116-KD cells, immunoprecipitated with JL-8 in modified RIPA buffer; blots for VAV2, cortactin, E-cadherin
T1 sequence: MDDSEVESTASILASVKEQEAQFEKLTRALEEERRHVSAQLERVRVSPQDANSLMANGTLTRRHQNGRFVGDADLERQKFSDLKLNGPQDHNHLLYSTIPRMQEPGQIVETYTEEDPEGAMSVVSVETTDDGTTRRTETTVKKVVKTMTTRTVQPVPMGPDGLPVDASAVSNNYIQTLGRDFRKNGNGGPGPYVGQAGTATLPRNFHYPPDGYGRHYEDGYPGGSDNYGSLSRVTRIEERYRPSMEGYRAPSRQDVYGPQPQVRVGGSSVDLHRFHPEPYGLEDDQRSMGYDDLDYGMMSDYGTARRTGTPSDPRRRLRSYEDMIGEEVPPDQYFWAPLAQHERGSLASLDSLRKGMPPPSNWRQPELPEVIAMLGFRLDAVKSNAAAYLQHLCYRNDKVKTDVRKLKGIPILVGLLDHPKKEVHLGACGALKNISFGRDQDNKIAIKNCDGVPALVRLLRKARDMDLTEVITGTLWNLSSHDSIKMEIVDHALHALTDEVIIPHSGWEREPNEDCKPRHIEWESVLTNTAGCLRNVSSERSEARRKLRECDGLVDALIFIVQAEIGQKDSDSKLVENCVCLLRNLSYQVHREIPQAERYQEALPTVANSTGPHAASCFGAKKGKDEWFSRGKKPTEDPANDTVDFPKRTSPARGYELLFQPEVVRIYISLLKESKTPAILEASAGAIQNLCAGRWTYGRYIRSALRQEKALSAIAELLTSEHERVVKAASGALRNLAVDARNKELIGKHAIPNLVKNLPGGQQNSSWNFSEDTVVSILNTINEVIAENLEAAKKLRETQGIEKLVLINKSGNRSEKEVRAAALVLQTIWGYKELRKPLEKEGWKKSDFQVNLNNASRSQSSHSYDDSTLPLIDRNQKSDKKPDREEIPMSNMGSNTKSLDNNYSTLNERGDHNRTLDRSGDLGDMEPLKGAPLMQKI

[2] = biological target: T2, p120 catenin, endogenous (human cell lines) (human (endogenous in KM12C, HEK 293T, HCT116)) (UniProt O60716); assay: co-IP; endogenous p120 immunoprecipitated with monoclonal p120 antibody from HCT116-NT and HCT116-KD cells in modified RIPA buffer; blots for VAV2, cortactin, p190 RhoGAP
T2 sequence: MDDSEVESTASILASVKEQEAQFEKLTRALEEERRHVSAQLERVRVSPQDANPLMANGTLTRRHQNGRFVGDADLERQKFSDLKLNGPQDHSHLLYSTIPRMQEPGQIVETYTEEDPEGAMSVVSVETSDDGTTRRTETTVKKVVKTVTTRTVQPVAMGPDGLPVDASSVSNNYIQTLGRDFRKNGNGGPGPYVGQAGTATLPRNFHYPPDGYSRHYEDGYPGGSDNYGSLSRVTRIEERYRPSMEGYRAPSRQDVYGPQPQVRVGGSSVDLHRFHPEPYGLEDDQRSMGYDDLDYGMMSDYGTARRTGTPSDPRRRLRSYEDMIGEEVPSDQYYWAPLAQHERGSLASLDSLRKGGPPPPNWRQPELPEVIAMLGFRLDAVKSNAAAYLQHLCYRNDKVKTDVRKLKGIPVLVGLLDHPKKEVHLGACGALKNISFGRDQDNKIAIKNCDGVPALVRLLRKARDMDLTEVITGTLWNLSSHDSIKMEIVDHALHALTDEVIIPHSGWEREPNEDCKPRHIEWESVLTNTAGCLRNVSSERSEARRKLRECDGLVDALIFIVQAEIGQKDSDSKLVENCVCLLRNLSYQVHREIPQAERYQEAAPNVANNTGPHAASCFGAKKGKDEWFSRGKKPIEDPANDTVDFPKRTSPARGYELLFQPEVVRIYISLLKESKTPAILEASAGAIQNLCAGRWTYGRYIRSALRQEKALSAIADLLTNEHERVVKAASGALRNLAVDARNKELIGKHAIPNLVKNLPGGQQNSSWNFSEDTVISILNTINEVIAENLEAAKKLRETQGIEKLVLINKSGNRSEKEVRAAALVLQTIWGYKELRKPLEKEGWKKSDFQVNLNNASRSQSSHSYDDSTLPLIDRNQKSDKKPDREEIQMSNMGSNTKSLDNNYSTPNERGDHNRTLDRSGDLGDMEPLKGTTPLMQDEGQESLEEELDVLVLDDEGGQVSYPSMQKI

[3] = biological target: T3, GST–PTP-PEST-C231S fusion protein (catalytically inactive trapping mutant) (UniProt Q05209); assay: pull-down; substrate trapping with HEK 293T cells, endogenous proteins; data not shown; only the target purified
T3 sequence: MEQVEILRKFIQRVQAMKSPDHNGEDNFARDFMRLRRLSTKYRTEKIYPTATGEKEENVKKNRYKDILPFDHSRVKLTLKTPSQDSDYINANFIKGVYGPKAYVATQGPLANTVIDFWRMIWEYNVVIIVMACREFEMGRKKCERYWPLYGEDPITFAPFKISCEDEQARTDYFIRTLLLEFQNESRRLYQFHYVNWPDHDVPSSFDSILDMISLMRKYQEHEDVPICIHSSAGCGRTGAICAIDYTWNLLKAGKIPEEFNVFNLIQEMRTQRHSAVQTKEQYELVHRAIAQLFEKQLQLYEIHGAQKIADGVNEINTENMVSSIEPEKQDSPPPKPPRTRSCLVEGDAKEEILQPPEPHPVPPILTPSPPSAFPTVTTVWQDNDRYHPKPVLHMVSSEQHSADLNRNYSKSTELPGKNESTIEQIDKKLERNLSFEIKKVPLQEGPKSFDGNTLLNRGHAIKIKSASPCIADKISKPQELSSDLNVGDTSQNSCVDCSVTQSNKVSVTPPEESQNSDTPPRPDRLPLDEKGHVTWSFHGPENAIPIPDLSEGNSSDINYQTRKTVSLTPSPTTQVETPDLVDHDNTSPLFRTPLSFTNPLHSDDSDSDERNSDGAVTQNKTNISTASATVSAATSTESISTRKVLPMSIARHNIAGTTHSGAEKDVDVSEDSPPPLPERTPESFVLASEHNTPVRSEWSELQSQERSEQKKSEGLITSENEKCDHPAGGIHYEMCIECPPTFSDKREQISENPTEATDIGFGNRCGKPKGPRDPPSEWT

[4] = biological target: T3, GST–PTP-PEST-C231S fusion protein (catalytically inactive trapping mutant); assay: pull-down; substrate trapping: 10 µg GST fusion protein with 1 mg lysate of pervanadate-treated (50 µM, 20 minutes) KM12C cells, modified RIPA buffer, 4°C, 1 hour; endogenous proteins detected by western blot; only the target purified
[5] = biological target: T3, GST–PTP-PEST-C231S fusion protein (catalytically inactive trapping mutant); assay: pull-down; substrate trapping: 10 µg GST fusion protein with 1 mg lysate of pervanadate-treated transfected cells (HEK 293T named for Fig. 1B and 6B), modified RIPA buffer, 4°C, 1 hour; western blot with anti-YFP; only the target purified

With “cortactin, endogenous (HCT116 cells) (from UniProt Q14247 1-550)” the binding [1] was “binds” and the binding [2] was “binds”.

B1: p120 catenin, endogenous (human cell lines) (protein, UniProt O60716 1-968)
chain: T2 sequence
For B1, the binding [3] was “binds” and the binding [4] was “binds”.

B2: YFP–p120-1A Y217F (protein, UniProt P30999 1-938)
chain: T1 sequence with Y217F, F335Y
B2 was tested, and the binding [5] was “binds”.

B3: VAV2, endogenous (HCT116 cells) (protein, UniProt P52735 1-878)
chain: MEQWRQCGRWLIDCKVLPPNHRVVWPSAVVFDLAQALRDGVLLCQLLHNLSPGSIDLKDINFRPQMSQFLCLKNIRTFLKVCHDKFGLRNSELFDPFDLFDVRDFGKVISAVSRLSLHSIAQNKGIRPFPSEETTENDDDVYRSLEELADEHDLGEDIYDCVPCEDGGDDIYEDIIKVEVQQPMIRYMQKMGMTEDDKRNCCLLEIQETEAKYYRTLEDIEKNYMSPLRLVLSPADMAAVFINLEDLIKVHHSFLRAIDVSVMVGGSTLAKVFLDFKERLLIYGEYCSHMEHAQNTLNQLLASREDFRQKVEECTLKVQDGKFKLQDLLVVPMQRVLKYHLLLKELLSHSAERPERQQLKEALEAMQDLAMYINEVKRDKETLRKISEFQSSIENLQVKLEEFGRPKIDGELKVRSIVNHTKQDRYLFLFDKVVIVCKRKGYSYELKEIIELLFHKMTDDPMNNKDVKKSHGKMWSYGFYLIHLQGKQGFQFFCKTEDMKRKWMEQFEMAMSNIKPDKANANHHSFQMYTFDKTTNCKACKMFLRGTFYQGYMCTKCGVGAHKECLEVIPPCKFTSPADLDASGAGPGPKMVAMQNYHGNPAPPGKPVLTFQTGDVLELLRGDPESPWWEGRLVQTRKSGYFPSSSVKPCPVDGRPPISRPPSREIDYTAYPWFAGNMERQQTDNLLKSHASGTYLIRERPAEAERFAISIKFNDEVKHIKVVEKDNWIHITEAKKFDSLLELVEYYQCHSLKESFKQLDTTLKYPYKSRERSASRASSRSPASCASYNFSFLSPQGLSFASQGPSAPFWSVFTPRVIGTAVARYNFAARDMRELSLREGDVVRIYSRIGGDQGWWKGETNGRIGWFPSTYVEEEGIQ
For B3, the binding [2] was “binds”.
